# Laboratory results from ChEMBL document CHEMBL4888484, “Replenishing the malaria drug discovery pipeline: Screening and hit evaluation of the MMV Hit Generation Library 1 (HGL1) against asexual blood stage Plasmodium falciparum ,using a nano luciferase reporter read-out” (2022).
# The whole screen tested about 150,000 compounds, of which about 540 (0.36%) showed an effect of 50% or more. The list shows a part of the results.
# Tested on: Plasmodium falciparum
# Assay: Primary screen in NF54 nanoGlo assay, in single point, at 2uM, 72h; a lower Z score goes with more inhibition
# Format: functional, Erythrocyte
# Conditions: timepoint 72 hour
Structure (SMILES),% Inhibition [%],Z score
Cc1cccc(C)c1NCC(=O)NC1C2CCOC2C12CCC2 (centres undefined),-7,0.62
O=C(Cc1ccccc1OC(F)F)N[C@H]1CS(=O)(=O)Cc2ccccc21,-3,0.5
CCOCC1CCCN(C(=O)NC(C)CCC2CCCO2)C1 (centres undefined),-19,3.03
CCOC(=O)c1cnn(-c2nc(-c3ccccc3)cs2)c1CN1CCN(CCO)CC1,-9,1.2
CCCS(=O)(=O)N1CCCc2cc(NS(=O)(=O)CCc3ccc(OC)cc3)ccc21,20,-2.5
CCc1nnc2cc(N3CCN(Cc4cccc5[nH]ccc45)CC3)cnn12,-11,1.37
C[C@@H]1CN(Cc2ccc(OCCCn3ccnc3)cc2)CCN1,7,-1.02
Cc1cc(C(=O)Nc2scc(-c3ccc(C)c(C)c3)c2C(N)=O)no1,-36,3.34
O=C(CCc1c(Cl)cccc1Cl)NCc1cccnc1-c1cccnc1,0,0.01
FC(F)(F)c1cnc(-n2ccc3cccnc32)c(Cl)c1,3,-0.51
Cc1n[nH]c(C)c1CN(C)c1cc([C@H]2CCOC2)ncn1,-9,1.7
NS(=O)(=O)c1ccc(N2CCC[C@@]3(C2)OCc2ccccc23)c(C(=O)O)c1,-14,1.49
CC(C)(C)c1nc(-c2noc(Cc3c[nH]c4ccccc34)n2)co1,0,0.02
COc1ccc(CNC(=O)c2cnc3[nH]c(=O)[nH]c3c2)cc1,2,-0.21
CC(C)NC(=O)CS(=O)(=O)c1ccc2[nH]ncc2c1,-1,0.24
CCC1(CC)Oc2ccc(NC(=O)N[C@@H]3C=C[C@H](CO)C3)cc2O1,-9,1.15
CCN(CC(=O)N1CCO[C@@H](C)C1)C1CCCCC1,-16,2.56
CNc1cccc(-c2cn(C(C)C)nn2)c1,-13,2.43
O=C(NCn1cncn1)c1ccccc1O,7,-0.89
COc1ccc(NC(=O)N2CCC[C@@H]2Cn2cncn2)c(OC)c1,-9,1.6
Cc1c(CNCCc2ccccc2)c(C(=O)O)c(C)n1-c1ccccc1,-3,0.51
COc1ccc([C@@H]2CCCN2C(=O)c2cc(C(C)=O)cn2C)cc1OC,17,-2.17

Structure (SMILES),% Inhibition [%],Z score
Cc1c(C(=O)NCc2ccccc2)cc(-c2ccccc2)n1-c1ccccc1F,-3,0.37
CN(C)C(=O)C1CCN(Cc2ncc(-c3ccccc3)s2)CC1,-23,3.05
CCN1Cc2ccccc2C[C@H]1c1nc(CC(N)=O)n[nH]1,-4,0.8
CCCN(CC(=O)NC)C(=O)c1c(C)noc1C(C)C,-4,0.62
COc1ccc(F)c(CN2CC[C@@H]3CN(C(=O)c4ccsc4)C[C@@H]32)c1,-1,0.1
O=C1CCCN1c1ccc(CNC(=O)N2CCC[C@H]2CO)cc1,-3,0.44
COCC(=O)Nc1nnc(CCCOc2ccccc2)s1,-6,0.86
COCCc1cccc(-c2ccc([C@H]3OCCN[C@@H]3C)cc2)c1,-10,2.02
O=C([C@H]1CCCN(S(=O)(=O)c2ccc(-c3ccn[nH]3)o2)C1)N1CCCC1,-11,1.26
c1cncc(-c2nc(-c3ccc4c(c3)OCO4)cs2)c1,14,-1.68
Cc1ccnn1CCc1nc(CC(N)=O)nn1-c1ccc(F)cc1F,1,-0.17
CC(C)Oc1cc(-c2cncnc2)nc(N)n1,16,-2.03
O=C(C1CCC1)N1CCC[C@H]1c1nc(C2CCOCC2)no1,34,-0.45
CCCC[C@@H](C(=O)Nc1cc(C)on1)N(C)Cc1nc2ccccc2n1CC,-8,0.95
CCCNC(=O)N(Cc1cc(-c2cc(C)ccc2C)on1)C(C)C,2,-0.24
Cc1ccnc([C@@H](NC(=O)c2csc(-c3cccs3)n2)C2CC2)c1,-13,2.29
COc1cccc(-c2cc3c(n(Cc4ccccn4)c2=O)CCN(Cc2ccc(CO)o2)C3)c1,1,-0.14
COc1ccc(C)cc1NC(=O)N1CCC[C@@H]1Cn1ccnc1C,-3,0.59
Cc1cc(F)ccc1CS(=O)(=O)NC(=O)Cc1c[nH]c2ccccc12,-5,0.66
O=C(NC[C@@H]1CCCN2CCCCC12)c1ccc2scnc2c1 (some centres undefined),-5,0.61
CC(C)N1CCNC(=O)[C@@H]1Cc1nc(C2CCCC2)nn1CCO,-11,2.11
Cc1cccn2cc(C(=O)N[C@@H](C)c3noc(C(F)F)n3)cc12,-6,1.18

Structure (SMILES),% Inhibition [%],Z score
O=C(Nc1cnc(-n2cccn2)nc1)c1ccccc1Cl,-15,2.43
C[C@H](NC(=O)Nc1ccc(N2CCOCC2)c(F)c1)c1ccncc1,-10,0.94
CCc1c(C)sc(NC(C)=O)c1C#N,-36,4.25
COc1ccc(CC(=O)Nc2nn(C)c3nc4c(C)cccc4cc23)cc1,-3,0.43
Cc1cc(O)ccc1NC(=O)C[C@H](NCC(C)C)C(=O)O,4,-0.55
CNc1ccc(C(=O)NC[C@H]2CCN(Cc3ccncc3)C2)cc1,-6,0.65
N[C@@H](Cc1ccccc1)C(=O)N1CCOC2CCCCC21 (some centres undefined),-15,2.28
CC(=O)NC1CN(C(=O)N[C@H]2CCN(c3ccc(Cl)cc3)C2)C1,-8,1.12
Cc1ccc([C@@H]2CC(c3ccc(C)c(C)c3)=NN2C(=O)CN(C)C(=O)C2CCC2)cc1,-18,1.71
O=C(OCC(c1ccccc1)c1ccccc1)c1cccnc1,10,-1.99
COc1ccc(-c2ncnc(Oc3ccccc3OC)c2N)cc1OC,-1,0.14
Cc1nc(N(C)C)nc(-c2cccc(-c3cc[nH]n3)c2)c1C,-20,2.12
CCC(=O)N1CCc2cc(N3C[C@@H](C(=O)NCC(C)C)CC3=O)ccc21,-10,1.57
CCCCS(=O)(=O)N1CC(S(=O)(=O)CC(C)C)C1,8,-0.96
O=C1NC2(CCCC2)C(=O)N[C@@H]1c1ccccc1,-2,0.4
Cc1cncc(-c2csc(-c3ccco3)n2)c1,-6,1.02
Cn1c(C[C@H]2CN(C(=O)c3ccccc3)CC[C@H]2CC(=O)O)nc2ccccc21,8,-1.14
O=C(NCCO)Nc1ccc(OC(F)(F)F)c(Br)c1,28,-3.17
Cn1cc(S(=O)(=O)N(Cc2ccccc2)c2ccncc2)cn1,-10,1.97
Cc1cn(CCn2ccnc2-c2cnc(-c3ccccc3C)s2)nn1,1,-0.18
Cc1cccnc1CN(C)C1CCN(Cc2cccnc2)CC1,-7,1.23
COCCc1ccccc1NCc1ccc2c(c1)OCCO2,3,-0.44

Structure (SMILES),% Inhibition [%],Z score
CCOc1ccc(CN2CCc3ncsc3C2)cc1F,-1,0.19
CN(Cc1cc(-c2ccccc2)no1)C(=O)CCc1ccc(=O)[nH]n1,-10,1.32
COc1cc(C)sc1C(=O)Nc1cccc(Oc2cccnn2)c1,-23,4.08
CCC[C@H]1CN(CCOc2ccc(F)cc2)C[C@@H]1N(C)C,1,-0.14
Cc1cc(CN2C(=O)N[C@](C)(c3ccccn3)C2=O)no1,-19,1.71
CC(C)CCNC(=O)c1ccc2c(c1)nc1n2CCCC1,1,-0.23
CN1c2cc(C(=O)Nc3ccc4c(c3)OCCO4)ccc2C(=O)N2CCC[C@@H]21,6,-0.71
CC(C)c1nc(CNS(=O)(=O)c2c3c(nn2C)CCCC3)c[nH]1,-10,1.06
COCC(=O)NCC(c1ccco1)c1ccco1,0,-0.04
CNc1ccccc1CN1CCO[C@]2(CCOC2)C1,26,-2.95
c1ccc(CN2CC(c3nc(C4CC4)no3)C2)nc1,-14,2.64
O=C(Cc1cc2ccccc2o1)Nc1ccnn1[C@H]1CCOC1,-13,1.51
Cn1cnc(-c2noc(CCc3csc(N)n3)n2)c1,1,-0.09
O=c1c2ccccc2cc2n1CCCCC2,-16,1.83
O=C1NCCCC[C@@H]1NC(=O)N1CCN(c2nccs2)CC1,-8,1.33
CC(C)(CN[C@H]1CCN(c2ccc(Cl)c(F)c2)C1)S(C)(=O)=O,0,-0.05
CN(C)CC[C@@H](c1ccccc1)n1ccnc1-c1ccc(C(=O)O)cc1,-9,1.17
COc1cccc(C(=O)N(CC(=O)N2CCN(c3ccc(-c4ccc(Cl)cc4Cl)nn3)CC2)C2CC2)c1,-3,0.47
C[C@@H](C(=O)NCc1cccnc1-n1cnc2ccccc21)N1CCCC1,-4,0.51
C[C@@]1(c2ccncc2)CCC(=O)NC1=O,-22,2.94
CCOc1ccccc1NC(=O)Cc1c(C)nn(-c2nc(C)cs2)c1O,-5,0.66
